This is an account of results in the supplement of paper PMC3724861.

This is one part of the list.

The subject of the assay is T1, Caupolican (Caup) homeodomain DNA-binding domain.
T1 sequence: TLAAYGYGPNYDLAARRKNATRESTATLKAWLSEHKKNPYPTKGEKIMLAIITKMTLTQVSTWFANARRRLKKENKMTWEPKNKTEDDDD
The assay can be described thus: PBM E-score (8-mer, recovered from the published 9-mer minima) (E-score (dimensionless, -0.5 to 0.5)); Drosophila protein; higher = stronger relative binding preference, active = 0.31 or more. The essentials: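 Caup's homeodomain DNA-binding domain (residues 214-303) was produced by in vitro transcription and translation and applied at 100 nM to custom-designed protein binding microarrays. Each value is an enrichment score giving relative binding preference for a short DNA word; higher means stronger. Published 9-mer scores were the minimum of their two constituent 8-mer scores, and the 8-mer values were recovered from those minima. A cutoff of 0.31 marks candidate binding sequences.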
In the case of TCCGGACA, the “PBM E-score” value is inactive: 0.0752.

Consider TACCTATA, for which the “PBM E-score” value is inactive: 0.121.

AATCCAAG: the “PBM E-score” value was inactive: 0.048.

Consider AAGTAAAA, for which the “PBM E-score” value was inactive: -0.0311.

In the case of AAAACCTA, the “PBM E-score” value was inactive: 0.11.

On to CGCCGCCA, for which the “PBM E-score” value was inactive: -0.218.

Turning to CCGTACCC, the “PBM E-score” value is inactive: -0.149.

ACCTCTAT: the “PBM E-score” value is inactive: -0.0159.

For AAGCCGAA, the “PBM E-score” value was inactive: -0.0193.

With GTTTAATA, the “PBM E-score” value is inactive: 0.23.

On to AGTTAGGG, for which the “PBM E-score” value was inactive: -0.126.

In the case of CCCGTTCC, the “PBM E-score” value is inactive: -0.113.

Consider AAACTTAA, for which the “PBM E-score” value is inactive: 0.0504.

Regarding GAGTCCCA, the “PBM E-score” value is inactive: -0.0935.

As to ATTACGAC, the “PBM E-score” value was inactive: 0.147.

As to ACACAAGA, the “PBM E-score” value is inactive: 0.229.

As to CCATTAGA, the “PBM E-score” value is inactive: -0.131.

With ATCTAATG, the “PBM E-score” value is inactive: 0.118.

As for CACAAACA, the “PBM E-score” value was inactive: 0.24.

As for CTACATTA, the “PBM E-score” value was inactive: 0.199.

Take AGAACACC: the “PBM E-score” value was inactive: 0.194.

Turning to ATGTTAGG, the “PBM E-score” value is inactive: 0.219.

Take AGAAGTCT: the “PBM E-score” value is at least 0.00548.

Regarding GAGATTCC, the “PBM E-score” value was inactive: -0.0852.

With AATCTTCC, the “PBM E-score” value is inactive: -0.0859.

As for CCGGACGA, the “PBM E-score” value is inactive: -0.0748.

For CCTTCAGA, the “PBM E-score” value was inactive: -0.0253.

Take CACACGCG: the “PBM E-score” value is inactive: 0.0165.

Regarding ACGCAAGG, the “PBM E-score” value was inactive: -0.0367.

Consider CTACCTCA, for which the “PBM E-score” value is inactive: -0.0438.

Consider AGCGCTAG, for which the “PBM E-score” value is inactive: -0.0817.

Turning to CATGTCCG, the “PBM E-score” value is inactive: 0.303.

In the case of CTCGAATC, the “PBM E-score” value is inactive: -0.021.

As to CCCGGGCA, the “PBM E-score” value is inactive: -0.225.

Turning to AGACCGGG, the “PBM E-score” value is inactive: -0.179.

Consider TACCGGCA, for which the “PBM E-score” value is inactive: 0.0136.

For CAGTAGGA, the “PBM E-score” value is inactive: -0.074.

Take AAATCCTT: the “PBM E-score” value is inactive: 0.0194.

For AGGGTTGA, the “PBM E-score” value was inactive: -0.0373.

In the case of CACCGGTC, the “PBM E-score” value was inactive: -0.179.

As for ACCGACTG, the “PBM E-score” value was inactive: -0.108.

As to AACAAAAC, the “PBM E-score” value was inactive: 0.179.

ATAACAGA: the “PBM E-score” value is inactive: 0.171.

Take GCCGTGGA: the “PBM E-score” value was inactive: -0.204.

Consider CATTTATA, for which the “PBM E-score” value is inactive: 0.123.

For the sequence AGAACAAC, the “PBM E-score” value is inactive: 0.229.

Regarding CGACACTA, the “PBM E-score” value is inactive: 0.116.

Turning to CTGGTTCA, the “PBM E-score” value is at least 0.113.

Take AGGGGACG: the “PBM E-score” value was inactive: -0.114.

As to CATACCCA, the “PBM E-score” value is inactive: 0.0853.

For AAGCCCTT, the “PBM E-score” value is inactive: -0.163.

On to GCGCCCTA, for which the “PBM E-score” value was inactive: -0.273.

Turning to AGATTTGA, the “PBM E-score” value is inactive: 0.0967.

On to AGTCCAAC, for which the “PBM E-score” value is inactive: -0.0836.

GGGGTTCA: the “PBM E-score” value was inactive: -0.151.

Turning to AGTCTTGC, the “PBM E-score” value was inactive: 0.0593.

As to ATCTTTCA, the “PBM E-score” value is inactive: 0.05.

With AATAAGTA, the “PBM E-score” value was at least 0.158.

On to GCCCAGAC, for which the “PBM E-score” value is inactive: -0.131.

Turning to ATAGTGAT, the “PBM E-score” value was inactive: 0.108.

Take CCTGAAAA: the “PBM E-score” value was inactive: -0.0612.

Consider CCGGTCGC, for which the “PBM E-score” value was inactive: -0.246.

In the case of AAAAAGTG, the “PBM E-score” value was inactive: 0.0416.

With ACAAGCAC, the “PBM E-score” value is inactive: 0.246.

On to GTGTACGA, for which the “PBM E-score” value is inactive: 0.226.

Consider CGGTCCGA, for which the “PBM E-score” value was inactive: -0.17.

As to AAGTGTAG, the “PBM E-score” value was inactive: 0.17.

ACTCTTAC: the “PBM E-score” value was inactive: 0.16.

Turning to AGAAGCGC, the “PBM E-score” value is inactive: -0.177.

Consider AATTGAAG, for which the “PBM E-score” value was inactive: 0.00027.

On to ACTAGGAG, for which the “PBM E-score” value was inactive: 0.0325.

Consider GACGCAGC, for which the “PBM E-score” value is inactive: -0.139.

On to AATAGGAG, for which the “PBM E-score” value is inactive: -0.0687.

As for TAGAAAGA, the “PBM E-score” value was inactive: -0.00849.

Take AATTTCCG: the “PBM E-score” value is inactive: 0.0416.

Consider ATATCAGG, for which the “PBM E-score” value was inactive: 0.132.

Consider GGGACCCA, for which the “PBM E-score” value was inactive: -0.239.

ACCCTCAA: the “PBM E-score” value was inactive: -0.0681.

CGAGATGC: the “PBM E-score” value was inactive: -0.0336.

On to ATCCTTGA, for which the “PBM E-score” value is inactive: -0.0201.

Regarding GGTGGGAA, the “PBM E-score” value was inactive: -0.146.

As to CCTCCGCC, the “PBM E-score” value is inactive: -0.233.

For AATAGCTG, the “PBM E-score” value is inactive: 0.0281.

As for CACGCGCA, the “PBM E-score” value was inactive: -0.202.

On to ATTTCAAA, for which the “PBM E-score” value was inactive: 0.0885.

In the case of ACGACTGA, the “PBM E-score” value was inactive: 0.0172.

In the case of CAACTCGA, the “PBM E-score” value was inactive: 0.0326.

For AGTAGGCG, the “PBM E-score” value was inactive: -0.0764.

For the sequence CTATAGTA, the “PBM E-score” value was inactive: 0.108.

For TGAAACCA, the “PBM E-score” value was inactive: 0.0538.

With ATTGTCTC, the “PBM E-score” value was inactive: 0.0708.

As to CGCCATGA, the “PBM E-score” value is inactive: -0.14.

GGGATCAA: the “PBM E-score” value is inactive: -0.0278.

As for GACGGACA, the “PBM E-score” value is inactive: 0.153.

Regarding AGCCTTAT, the “PBM E-score” value was at least 0.0192.

In the case of GAGAGAGC, the “PBM E-score” value is inactive: -0.176.

Regarding CGGCCGAA, the “PBM E-score” value is inactive: -0.108.

As for CTCAAGCC, the “PBM E-score” value was inactive: -0.209.

Take CGGTGGAG: the “PBM E-score” value is inactive: -0.186.

Turning to GTTTCGGA, the “PBM E-score” value was at least 0.125.

Regarding GGTAGCAC, the “PBM E-score” value is inactive: -0.172.

With AGCATACA, the “PBM E-score” value was inactive: 0.202.

Consider GAATGCGA, for which the “PBM E-score” value was inactive: -0.0148.

Regarding AGTAGCTA, the “PBM E-score” value was inactive: 0.118.

With CTATCCAG, the “PBM E-score” value was inactive: -0.0515.

As to CACAACGC, the “PBM E-score” value is inactive: -0.0274.

Regarding CCTCCCAG, the “PBM E-score” value was inactive: -0.242.

Take ATTATTTC: the “PBM E-score” value is inactive: 0.109.

In the case of AGGCCGTG, the “PBM E-score” value was inactive: -0.0761.

As to AAGTAATT, the “PBM E-score” value is inactive: 0.18.

On to CCCAGCGC, for which the “PBM E-score” value was inactive: -0.298.

On to AATTGCAA, for which the “PBM E-score” value is at least 0.164.

For CATGCGCC, the “PBM E-score” value was inactive: -0.0376.

Turning to CAATCAGC, the “PBM E-score” value was inactive: -0.0209.

For AGTTCATG, the “PBM E-score” value was inactive: 0.083.

AACAGGTT: the “PBM E-score” value was at least 0.238.

Regarding AATTGATG, the “PBM E-score” value was inactive: 0.16.

In the case of ATGACGTC, the “PBM E-score” value was inactive: 0.00361.

On to AACCCCTG, for which the “PBM E-score” value was inactive: -0.133.

For TTCGCAAA, the “PBM E-score” value was inactive: 0.0578.

For ATCTAAAC, the “PBM E-score” value is inactive: -0.00073.

Consider GCAACGAA, for which the “PBM E-score” value is inactive: 0.0498.

Regarding AAGGTCTC, the “PBM E-score” value is inactive: -0.0943.

As to ACGAACGA, the “PBM E-score” value is inactive: 0.0681.

Consider AGAATATC, for which the “PBM E-score” value is inactive: 0.00783.

In the case of AGGAGAAT, the “PBM E-score” value was inactive: -0.00131.

For AGTTGATC, the “PBM E-score” value is inactive: 0.0269.

For ACTGCCAA, the “PBM E-score” value is inactive: 0.0239.

Consider AGACATGG, for which the “PBM E-score” value was active: 0.329.

GTTTGTGA: the “PBM E-score” value was inactive: 0.0985.

As for CCGATAGG, the “PBM E-score” value was inactive: -0.0503.

AACTGAGC: the “PBM E-score” value is inactive: -0.17.

Regarding ATCAATGG, the “PBM E-score” value is inactive: -0.0483.

In the case of CGTCATGC, the “PBM E-score” value is inactive: -0.0931.

On to AGACGTGA, for which the “PBM E-score” value is inactive: 0.087.

Turning to ACAAGCGC, the “PBM E-score” value was inactive: 0.171.

As for CTGCCACC, the “PBM E-score” value was inactive: -0.208.

ACCGAATC: the “PBM E-score” value was inactive: 0.0317.

On to CAGTCGCA, for which the “PBM E-score” value was inactive: -0.143.

As for ACGCATCT, the “PBM E-score” value is inactive: 0.0331.

With GCATGTCC, the “PBM E-score” value is active: 0.31.

In the case of ACGCATAG, the “PBM E-score” value was inactive: 0.00458.

For ATCGTGTA, the “PBM E-score” value was active: 0.407.

Regarding CTCGGAAC, the “PBM E-score” value was inactive: 0.01.
